From PubChem BioAssay AID488969 (Vanderbilt High Throughput Screening Facility, 2010) come the findings set out here.

Over roughly 110,000 compounds, “z-score” has its median near -0.1; the highest 2% begin near 2. The list shows a part of the results.

The test concerns the target Metabotropic glutamate receptor 8 (Rattus norvegicus) (UniProt P70579). The experiment in a line: mGluR8 Gi/Go-coupled signaling modulation – cell-based, rat, thallium flux, HTS, primary screen (AID 488969). Conditions: HEK293 rat mGluR8, GIRK (G protein-gated inwardly rectifying potassium channel) thallium flux, FluoZin2; at 10 µM; stronger effect = higher value; submaximal glutamate (EC20) added with thallium.
Chain of UniProt P70579 (P70579 whole entry, looked up): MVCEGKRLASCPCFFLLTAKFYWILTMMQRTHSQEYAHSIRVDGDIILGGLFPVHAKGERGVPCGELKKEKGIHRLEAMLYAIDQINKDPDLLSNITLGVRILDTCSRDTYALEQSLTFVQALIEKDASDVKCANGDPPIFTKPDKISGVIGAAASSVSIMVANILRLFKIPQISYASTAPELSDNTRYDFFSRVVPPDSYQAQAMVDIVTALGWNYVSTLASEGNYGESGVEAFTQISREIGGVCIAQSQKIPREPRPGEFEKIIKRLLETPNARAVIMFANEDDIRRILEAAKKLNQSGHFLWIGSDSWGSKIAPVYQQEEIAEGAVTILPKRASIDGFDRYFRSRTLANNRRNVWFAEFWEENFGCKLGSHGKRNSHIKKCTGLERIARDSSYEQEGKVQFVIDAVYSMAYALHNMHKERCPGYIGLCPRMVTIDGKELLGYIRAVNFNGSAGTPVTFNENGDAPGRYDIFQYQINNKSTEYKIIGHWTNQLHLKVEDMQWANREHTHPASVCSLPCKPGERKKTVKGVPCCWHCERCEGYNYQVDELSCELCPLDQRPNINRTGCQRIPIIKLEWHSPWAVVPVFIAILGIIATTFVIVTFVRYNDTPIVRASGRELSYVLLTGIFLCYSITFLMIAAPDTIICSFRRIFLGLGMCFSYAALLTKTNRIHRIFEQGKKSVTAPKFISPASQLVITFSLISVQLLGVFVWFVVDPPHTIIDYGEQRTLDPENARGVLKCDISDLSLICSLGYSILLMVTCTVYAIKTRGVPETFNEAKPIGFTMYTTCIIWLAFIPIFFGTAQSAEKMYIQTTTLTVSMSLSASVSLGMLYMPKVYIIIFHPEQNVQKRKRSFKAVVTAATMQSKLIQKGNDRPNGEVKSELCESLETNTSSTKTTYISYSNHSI
On to `O=C(N/N=C/c1ccco1)c1cc([N+](=O)[O-])cc([N+](=O)[O-])c1`, for which the z-score came to 0.778.
Under `CC(=O)NC(CCS(C)(=O)=O)C(=O)Nc1ccccc1C` (stereo unspecified) stands 0.309; under `O=C(CSc1nnc(CNC(=O)c2ccco2)o1)NC1CCCC1`, 0.658; under `COc1ccc(NC(=O)C2CSC3c4ccccc4C(=O)N23)cc1` (stereo unspecified), 0.3.
On to `Cc1cccc(N2CCN(C(=O)c3cc4c(=O)[nH]c5ccccc5c4n3C)CC2)c1C`, for which the z-score is -0.261.
Under `COCCCNC(=O)c1cccn2c(=O)c3cc4ccccc4cc3nc12` stands -0.323.
Under `CCn1nccc1C(=O)NC1=C(C#N)CCC1` stands 1.07; under `Cc1cc(S(=O)(=O)N2CCCCCC2)c(Cl)cc1Cl`, -0.00904; under `COc1ccc(CC(=O)Nc2ccc(S(=O)(=O)N(C)C)cc2)cc1OC`, -0.142.
To `Cc1c(NC(=O)CSc2nccn2C)c(=O)n(-c2ccccc2)n1C` belongs -0.0895; to `O=C(NCC(c1cccs1)N1CCOCC1)c1ccc(Br)o1` (stereo unspecified), 0.127.
As to `O=C(c1cc2n(n1)C(C(F)(F)F)CC(c1ccc(Cl)cc1)N2)N1CCCC1` (stereo unspecified), the z-score was determined as 0.223.
Consider `Cn1c(SCC(=O)N/N=C/C=C/c2ccccc2[N+](=O)[O-])nc2ccccc21`, for which the z-score is -0.165.
To `CCOC(=O)c1c(NC(=O)Cn2nc(C(F)F)cc2C(F)F)sc(C)c1C` belongs -0.217; to `CC1(C)NC(=O)N(CNc2cc(Cl)ccc2Cl)C1=O`, 0.105; to `O=C(c1ccc(COc2ccc(Br)cc2)o1)N1N=C(C(F)F)CC1(O)C(F)F` (stereo unspecified), -0.363.
As to `Cc1cc(/C=C(/C#N)c2nc3ccccc3[nH]2)c(C)n1-c1cccc([N+](=O)[O-])c1`, the z-score was -0.533.
Under `CCOCN(C(=O)Cn1c(COC)nc2ccccc21)c1c(C)cccc1CC` stands -0.0539.
Under `CCc1c(C)n([O-])c2c([n+]1=O)CCCCC2` stands -0.0701; under `O=C1C2=C(c3ccccc31)[N+](=O)C1CCCCC1N2[O-]` (stereo unspecified), -0.178; under `CNC(=S)N(Cc1ccc(OC)cc1)C1CC(=O)N(c2ccc(Cl)cc2)C1=O` (stereo unspecified), 0.0914.
`CC(=O)c1cc(CC=C(C)C)c(O)c(CC=C(C)C)c1O`: the z-score was -0.162.
`COc1ccc(CCNC(=O)CSc2nnnn2Cc2ccc3c(c2)OCO3)cc1OC` had a z-score of 0.0891.
Under `CCOC(=O)/C=C1\CC(=O)Nc2nonc2N1` stands 0.969; under `CCCCC(=O)Nc1ccc(N2CCCC2)cc1`, -0.0323.
Under `O=C(/C=C\Nc1ccccn1)c1ccc(Cl)cc1` stands -0.145.
For `O=C(N/N=C/c1cccc(O)c1)c1ccc(COc2ccccc2Br)cc1`, the z-score is -0.253.
Turning to `COc1ccc(OC)c(NC(=O)CC(NCCC2=CCCCC2)C(=O)O)c1` (stereo unspecified), the z-score is -0.206.
To `COc1ccnc(CSC(N)=Nc2ccc(F)cc2)c1` belongs 0.221; to `COc1ccc(-n2c(=O)cc(N3CCN(c4ccccc4)CC3)[nH]c2=O)cc1`, 1.04; to `Cc1onc(-c2ccccc2Cl)c1C(=O)Nc1ccc(S(=O)(=O)NCC2CCCO2)cc1` (stereo unspecified), 0.212.
